Reference: patent publication US9169268B2, “Use of 7-alkoxy fangchinoline compounds in preventing, alleviating and/or treating depression” (Peking University, priority 2012, dated 2015)
For some of these results: The name of at least one read-out is uncertain. At least one compound was matched to its structure with a doubt left. Some results were stated once for a whole list of compounds, not compound by compound.

Assays:
Format in all cases: in vivo
[1] = tested on: chronic unpredictable stress (CUS) model in rats; test: Forced swimming test in chronic unpredictable stress (CUS) model in rats; settings: for Forced swimming Immobility time: 7 days
Method: (§1) The chronic unpredictable stress model is usually used as a depression model. The experimental method is as follows. Stimulation includes forced swimming (10° C., 6 min), tail clamping (1 cm from the tail tip, 1 min), water deprivation (24 h), fasting (24 h), isolated housing (24 h), tail suspension (1 h), immobility (2 h), high-speed horizontal oscillation (120 times/min, 1 h), foot shock for 45 minutes (mean 1 mA, time course 1 s, once/min). These stressors were randomly scheduled over a one-week period and repeated throughout the 23-day experiment. The non-stress control group was housed under normal conditions. Time: between 9:00 a.m. and 2:00 p.m. Since Day 15, the animals in each group were daily intragastrically administered with the subject medicament and double distilled water based on body weight (blank group and CUS model group) respectively, 60 minutes before the stress. […] Behavior and sleep electroencephalogram analyses were carried out on Day 22-23 of the stress. On Day 21, 60 minutes after the final administration, a sucrose solution intake test was carried out and sleep electroencephalogram was recorded simultaneously. On Day 22, EPM and forced swimming tests were carried out.

[2] = tested on: chronic unpredictable stress (CUS) model in rats; test: Elevated plus-maze (EPM) anxiety test in CUS model in rats; settings: for effect on residence time in open arm area and entries into open arms: CUS rats, 7.5, 15 and 30 mg/kg
Method: as §1

[3] = tested on: chronic unpredictable stress (CUS) model in rats; test: Depression-like behaviors overall in CUS model in rats (forced swimming, sucrose preference, autonomous mobility); settings: doses of 30 and 60 mg/kg
Text: The chronic unpredictable stress model is usually used as a depression model. The experimental method is as follows. […] These stressors were randomly scheduled over a one-week period and repeated throughout the 23-day experiment. The non-stress control group was housed under normal conditions. Time: between 9:00 a.m. and 2:00 p.m. Since Day 15, the animals in each group were daily intragastrically administered with the subject medicament and double distilled water based on body weight (blank group and CUS model group) respectively, 60 minutes before the stress. Imipramine (intraperitoneally, IP) was adopted as a positive control. Behavior and sleep electroencephalogram analyses were carried out on Day 22-23 of the stress. On Day 21, 60 minutes after the final administration, a sucrose solution intake test was carried out and sleep electroencephalogram was recorded simultaneously. On Day 22, EPM and forced swimming tests were carried out. Result 1: […]

[4] = tested on: chronic unpredictable stress (CUS) model in rats; test: Sucrose solution preference in CUS model in rats; settings: 60 mg/kg, p<0.05
Method: as §1

Structure (SMILES): COc1ccc2cc1Oc1ccc(cc1)CC1c3cc(c(OC)cc3CCN1C)Oc1c(OC)c(OC)c(Cl)c3c1C(C2)N(C)CC3 (stereo not shown) [Compound 1, 5-chloro-7-methoxy fangchinoline]
- Forced swimming Immobility time ([1]; 7.5 mg/kg intragastric daily): 157.4 ± 5.6^##,$$ seconds
- Forced swimming Immobility time ([1]; 15 mg/kg intragastric daily): 99.2 ± 2.9^##,$$ seconds
- Forced swimming Immobility time ([1]; 30 mg/kg intragastric daily): 76.6 ± 4.7^##,$$ seconds
- effect on residence time in open arm area and entries into open arms [2]: remarkably increased

Structure (SMILES): CCOc1c(OC)c(Br)c2c3c1Oc1cc4c(cc1OC)CCN(C)C4Cc1ccc(cc1)Oc1cc(c(Br)cc1OC)CC3N(C)CC2 (stereo not shown) [Compound 5, 5,14-dibromo-7-ethoxy fangchinoline]
- Forced swimming Immobility time ([1]; 7.5 mg/kg intragastric daily): 144.4 ± 4.0^##,$$ seconds
- Forced swimming Immobility time ([1]; 15 mg/kg intragastric daily): 99.6 ± 3.7^##,$$ seconds
- Forced swimming Immobility time ([1]; 30 mg/kg intragastric daily): 69.7 ± 4.8^##,$$ seconds

Structure (SMILES): CCOc1c(OC)cc2c3c1Oc1cc4c(cc1OC)CCN(C)C4Cc1ccc(cc1)Oc1cc(ccc1OC)CC3N(C)CC2 (stereo not shown) [Compound 3, 7-ethoxy fangchinoline]
- Forced swimming Immobility time ([1]; 7.5 mg/kg intragastric daily): 120.6 ± 6.4^##,$$ seconds
- Forced swimming Immobility time ([1]; 15 mg/kg intragastric daily): 88.5 ± 4.3^##,$$ seconds
- Forced swimming Immobility time ([1]; 30 mg/kg intragastric daily): 58.7 ± 5.2^##,$$ seconds
- effect on residence time in open arm area and entries into open arms [2]: remarkably increased

Structure (SMILES): CCCOc1c(OC)cc2c3c1Oc1cc4c(cc1OC)CCN(C)C4Cc1ccc(cc1)Oc1cc(ccc1OC)CC3N(C)CC2 (stereo not shown) [Compound 6, 7-propoxy fangchinoline]
- Forced swimming Immobility time ([1]; 7.5 mg/kg intragastric daily): 134.6 ± 5.2^##,$$ seconds
- Forced swimming Immobility time ([1]; 15 mg/kg intragastric daily): 98.8 ± 4.7^##,$$ seconds
- Forced swimming Immobility time ([1]; 30 mg/kg intragastric daily): 78.5 ± 3.9^##,$$ seconds
- effect on residence time in open arm area and entries into open arms [2]: remarkably increased

Structure (SMILES): COc1cc(Br)c2cc1Oc1ccc(cc1)CC1c3cc(c(OC)cc3CCN1C)Oc1c(OC)c(OC)c(Br)c3c1C(C2)N(C)CC3 (stereo not shown) [Compound 2, 5,14-dibromo-7-methoxy fangchinoline]
- Forced swimming Immobility time ([1]; 7.5 mg/kg intragastric daily): 136.2 ± 4.6^##,$$ seconds
- Forced swimming Immobility time ([1]; 15 mg/kg intragastric daily): 96.7 ± 4.5^##,$$ seconds
- Forced swimming Immobility time ([1]; 30 mg/kg intragastric daily): 76.8 ± 3.4^##,$$ seconds
- effect on residence time in open arm area and entries into open arms [2]: remarkably increased

Structure (SMILES): COc1ccc2cc1Oc1ccc(cc1)CC1c3cc(c(OC)cc3CCN1C)Oc1c(OC(C)C)c(OC)cc3c1C(C2)N(C)CC3 (stereo not shown) [Compound 8, 7-isopropoxy fangchinoline]
- Forced swimming Immobility time ([1]; 7.5 mg/kg intragastric daily): 136.5 ± 5.8^##,$$ seconds
- Forced swimming Immobility time ([1]; 15 mg/kg intragastric daily): 102.3 ± 6.2^##,$$ seconds
- Forced swimming Immobility time ([1]; 30 mg/kg intragastric daily): 72.4 ± 5.5^##,$$ seconds

Structure (SMILES): COc1cc2c3cc1Oc1c(OC)c(OC)cc4c1[C@@H](Cc1ccc(O)c(c1)Oc1ccc(cc1)C[C@@H]3N(C)CC2)N(C)CC4 [berbamine, reference compound]
- Forced swimming Immobility time ([1]; 30 mg/kg intragastric daily): 179.2 ± 6.2 s
- Forced swimming Immobility time ([1]; 60 mg/kg intragastric daily): 175.8 ± 7.5 s
- amelioration effect on depression-like behaviors [3]: no amelioration effect
- anti-anxiety-like effect ([2]; CUS rats, doses of 30 and 60 mg/kg): no anti-anxiety-like effect

Structure (SMILES): CCCCOc1c(OC)cc2c3c1Oc1cc4c(cc1OC)CCN(C)C4Cc1ccc(cc1)Oc1cc(ccc1OC)CC3N(C)CC2 (stereo not shown) [Compound 7, 7-butoxy fangchinoline]
- Forced swimming Immobility time ([1]; 7.5 mg/kg intragastric daily): 142.2 ± 6.0^##,$$ seconds
- Forced swimming Immobility time ([1]; 15 mg/kg intragastric daily): 94.4 ± 5.3^##,$$ seconds
- Forced swimming Immobility time ([1]; 30 mg/kg intragastric daily): 81.3 ± 4.3^##,$$ seconds
- effect on residence time in open arm area and entries into open arms [2]: remarkably increased

Structure (SMILES): COc1ccc2cc1Oc1ccc(cc1)CC1c3cc(c(OC)cc3CCN1C)Oc1c(OC)c(OC)c(OC)c3c1C(C2)N(C)CC3 (stereo not shown) [5,7-dimethoxy-fangchinoline, reference compound]
- Forced swimming Immobility time ([1]; 30 mg/kg intragastric daily): 179.1 ± 6.8 s
- Forced swimming Immobility time ([1]; 60 mg/kg intragastric daily): 168.3 ± 5.2 s

Structure (SMILES): COc1ccc2cc1Oc1ccc(cc1)C[C@H]1c3cc(c(OC)cc3CCN1C)Oc1c(OC)c(OC)cc3c1[C@H](C2)N(C)CC3 [tetrandrine, reference compound]
- Forced swimming Immobility time ([1]; 7.5 mg/kg intragastric daily): 179.5 ± 8.3 s
- Forced swimming Immobility time ([1]; 15 mg/kg intragastric daily): 175.3 ± 8.8 s
- Forced swimming Immobility time ([1]; 30 mg/kg intragastric daily): 162.7 ± 8.5 s
- Forced swimming Immobility time ([1]; 60 mg/kg intragastric daily): 160.8 ± 7.6 s
- amelioration effect on the immobility time in forced swimming ([1]; 60 mg/kg, p<0.05): merely certain amelioration effect
- effect on entries into open arms ([2]; CUS rats, 60 mg/kg): could increase entries into open arms
- effect on the residence time in open arms ([2]; CUS rats, 60 mg/kg): no amelioration effect
- amelioration effect on sucrose solution preference [4]: merely certain amelioration effect
